Experimental data published in PubChem BioAssay AID504332 (National Center for Advancing Translational Sciences (NCATS), 2011).
Screen size: about 350,000 compounds; about 31,000 (8.9%) were called active. The shares of active, inactive and inconclusive entries below differ from those in the screen. The call rests on the fitted dose curve; in most records, active means well fitted inhibition curve with a large enough effect; inconclusive means small, poorly fitted or top-dose-only effect; inactive means no such curve, though single readings can be large or run the other way. A potency beside an inconclusive call is a rough fit, not a confirmed value.

biological target: Histone-lysine N-methyltransferase EHMT2 (Homo sapiens) (UniProt Q96KQ7); experiment: qHTS Assay for Inhibitors of Histone Lysine Methyltransferase G9a; details: G9a H3K9 monomethylation, AlphaScreen, 2 h; activity, negative = inhibition: at 59 µM (top of the series) unless noted; further: nearly all actives have a fitted effect of over 75% in size
UniProt Q96KQ7, sequence (Q96KQ7 whole entry, looked up): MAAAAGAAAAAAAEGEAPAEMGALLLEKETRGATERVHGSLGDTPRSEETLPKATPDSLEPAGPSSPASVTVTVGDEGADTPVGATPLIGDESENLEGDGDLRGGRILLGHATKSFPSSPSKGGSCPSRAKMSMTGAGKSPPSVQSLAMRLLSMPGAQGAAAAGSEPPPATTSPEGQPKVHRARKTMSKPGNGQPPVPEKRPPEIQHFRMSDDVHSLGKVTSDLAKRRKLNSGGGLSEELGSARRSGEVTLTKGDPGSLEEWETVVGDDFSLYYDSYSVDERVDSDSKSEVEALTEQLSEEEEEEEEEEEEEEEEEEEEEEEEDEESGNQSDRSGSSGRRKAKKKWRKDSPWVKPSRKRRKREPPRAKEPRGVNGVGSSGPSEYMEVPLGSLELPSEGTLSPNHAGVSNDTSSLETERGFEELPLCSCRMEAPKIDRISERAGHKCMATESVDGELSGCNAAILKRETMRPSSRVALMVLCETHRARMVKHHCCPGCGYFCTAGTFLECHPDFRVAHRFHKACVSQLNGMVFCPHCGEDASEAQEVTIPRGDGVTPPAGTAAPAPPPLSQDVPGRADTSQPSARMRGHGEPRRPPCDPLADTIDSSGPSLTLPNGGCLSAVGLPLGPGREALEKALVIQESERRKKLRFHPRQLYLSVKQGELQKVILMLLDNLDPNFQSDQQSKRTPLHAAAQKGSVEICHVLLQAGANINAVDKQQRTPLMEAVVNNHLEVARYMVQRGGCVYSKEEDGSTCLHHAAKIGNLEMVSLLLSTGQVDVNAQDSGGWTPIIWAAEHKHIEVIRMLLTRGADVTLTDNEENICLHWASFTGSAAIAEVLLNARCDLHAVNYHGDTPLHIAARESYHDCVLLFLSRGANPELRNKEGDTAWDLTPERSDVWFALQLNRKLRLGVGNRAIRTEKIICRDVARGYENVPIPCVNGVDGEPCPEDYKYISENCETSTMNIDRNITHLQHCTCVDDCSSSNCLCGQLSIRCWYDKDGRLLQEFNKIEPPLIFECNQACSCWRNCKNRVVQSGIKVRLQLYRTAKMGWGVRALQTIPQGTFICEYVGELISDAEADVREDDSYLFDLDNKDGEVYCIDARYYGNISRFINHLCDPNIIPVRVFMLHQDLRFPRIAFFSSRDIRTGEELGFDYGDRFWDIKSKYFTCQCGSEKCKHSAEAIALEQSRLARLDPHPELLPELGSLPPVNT
Summary of the method: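 Signal arises when biotinylated H3K9 peptide, once monomethylated, bridges streptavidin donor and antibody-captured acceptor beads. Enzyme at 20 nM was preincubated 15 min with test compounds; peptide 500 nM and SAM 20 uM then reacted for 2 h.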
On the % scale 0 is the no-effect control and ±100 the full control effect; potency means the concentration at half of the fitted maximal effect; tags describe the fitted curve by direction and shape.

SMILES | Potency | activity, negative = inhibition
CCN(CC)C(=O)c1ccc(Cn2cc([N+](=O)[O-])cn2)o1 | inconclusive: 89.1 µM [inhibitor, single point] | –
CC(C)CCn1c(COc2ccccc2)n[nH]c1=S | active: 1.78 µM | –
CCc1ccc2oc(C(=O)Nc3cccc(C(F)(F)F)c3)cc(=O)c2c1 | inconclusive: 39.8 µM [inhibitor, single point] | –
O=C(NCc1cn(-c2ccccc2)nc1-c1ccccc1)c1ccc([N+](=O)[O-])cc1 | inconclusive: 89.1 µM [inhibitor, single point] | –
Cc1cc(C(=O)CSc2nnnn2-c2ccc(O)cc2)c(C)n1C | inconclusive: 50.1 µM [inhibitor, partial curve] | –
NS(=O)(=O)c1ccc(N2C(=O)C3CC=CCC3C2=O)cc1 (centres undefined) | inconclusive: 50.1 µM [inhibitor, partial curve] | –
Cc1ccccc1-c1nc(CS(=O)CC(=O)NC2CCCC2)c(C)o1 (centres undefined) | active: 79.4 µM | –
COc1ccc(-c2csc(Nc3ccc(S(N)(=O)=O)cc3)n2)cc1OC | inconclusive: 39.8 µM [inhibitor, partial curve, poor fit] | –
CCOc1ccc(S(=O)(=O)Nc2ccc(C(=O)NCC3(N4CCCCC4)CCCCC3)cc2)cc1 | inconclusive: 89.1 µM [inhibitor, single point] | –
COc1ccccc1CN1COc2ccc3c(oc(=O)c4ccccc43)c2C1 | active: 0.794 µM | –
CC1Cc2ccccc2N1CC(=O)Nc1ccc(S(N)(=O)=O)cc1 (centres undefined) | – | inactive: -108%
Cc1cc(Cl)ccc1OCCCC(=O)Nc1ccc(S(=O)(=O)Nc2ncccn2)cc1 | inconclusive: 89.1 µM [inhibitor, single point] | –
Cc1ccc(C(=O)NCC(=O)OCC(=O)c2ccc3c(c2)NC(=O)CO3)cc1 | inconclusive: 15.8 µM [inhibitor, partial curve] | –
CN1C(=O)c2oc3ccccc3c(=O)c2C1c1ccncc1 (centres undefined) | active: 8.91 µM | –
CCN(CC(=O)Nc1ccccc1OC)C(=O)c1ccc(NS(=O)(=O)c2ccc(C(C)=O)cc2)cc1 | inconclusive: 56.2 µM [inhibitor, partial curve, poor fit] | –
CC1C(=O)N2CCCc3cc(S(=O)(=O)Nc4ccccc4C(N)=O)cc1c32 (centres undefined) | active: 44.7 µM | –
O=S(=O)(O)c1ccc(N=NNc2ccc(Br)cc2)cc1 | active: 25.1 µM | –
O=C(O)c1ccccc1-c1ccccc1C(=O)NNc1ccccc1 | active: 8.91 µM | –
COCCNC(=O)[C@@]1(Cc2ccccc2)C=C[C@@H](C)N1C(C)=O | inconclusive: 89.1 µM [inhibitor, single point] | –
COc1ccc(S(=O)(=O)N2CCCCC2)cc1C(=O)Nc1cccc(C(F)(F)F)c1 | – | inactive: -7.39%
CCOC(=O)c1cnc(NCc2ccccc2OC)c2ccccc12 | – | inactive: 56.9%
S=C1Cc2ccccc2C(c2ccc(Cl)cc2)N1 (centres undefined) | inconclusive: 70.8 µM [inhibitor, single point] | –
O=S(=O)(c1cc(F)ccc1F)N1CCC2(CC1)OCCN2S(=O)(=O)c1cccs1 | inconclusive: 89.1 µM [inhibitor, partial curve, poor fit] | –

SMILES | Potency | activity, negative = inhibition
O=C1CC(C(=O)N2CCN(S(=O)(=O)c3cccc(F)c3)CC2)CN1Cc1ccccc1Cl (centres undefined) | – | inactive: -9.96% [at 102 µM]
COc1ccc(CC(=O)OCC(=O)NCc2ccc(Cl)cc2)cc1 | – | inactive: 10.6% [at 102 µM]
CCOC(=O)N1CCN(C(=O)c2cccc(NC(=O)c3ccco3)c2)CC1 | inconclusive: 2.51 µM [inhibitor, partial curve, poor fit] | –
O=C(C[n+]1ccc(C(=O)N/N=C/c2ccc(Br)cc2)cc1)c1ccccc1 | active: 7.94 µM | –
Cc1c(NC(=O)NCCN2C(=O)C3C4C=CC(C4)C3C2=O)c(=O)n(-c2ccccc2)n1C (centres undefined) | inconclusive: 89.1 µM [inhibitor, single point] | –
CCOC(=O)N1CCC(C(N)=O)CC1 | inconclusive: 89.1 µM [inhibitor, single point] | –
CCCCOc1ccc(S(=O)(=O)NNC(=O)c2cc3ccccc3o2)cc1 | inconclusive: 22.4 µM [inhibitor, single point] | –
CN(C)c1nc(=Nc2cccc(Cl)c2)ss1 | active: 6.31 µM | –
Cc1ccc(NC(=O)c2ccc(OC(=O)CCN3C(=O)c4ccccc4C3=O)cc2)cc1 | inconclusive: 2.51 µM [inhibitor, partial curve, poor fit] | –
CCSC1=C(C#N)C(c2cccc(OC)c2)CC(=O)N1 (centres undefined) | inconclusive: 31.6 µM [inhibitor, partial curve, poor fit] | –
COc1ccc(-c2noc(CCC(=O)Nc3ccc(C(F)(F)F)cc3)n2)cc1 | – | inactive: 5.18%
O=C(CN1C(=O)C2C3C=CC(C3)C2C1=O)OCC(=O)c1ccc([N+](=O)[O-])cc1 (centres undefined) | active: 39.8 µM | –
O=C(C[n+]1ccc(C(=O)NCc2ccccc2)cc1)c1ccc(OC(F)F)cc1 | inconclusive: 50.1 µM [inhibitor, single point] | –
CCc1c(C)sc(NC(=S)Nc2nc(C)cc(C)n2)c1C(=O)OC | – | inactive: -30.2% [at 102 µM]
O=C1CCCCC1Sc1nnc(Nc2ccccc2)s1 (centres undefined) | inconclusive: 44.7 µM [inhibitor, partial curve, poor fit] | –
CCCCNC(=O)c1ccc(NS(=O)(=O)c2ccc3[nH]c(=O)[nH]c3c2)cc1 | active: 70.8 µM | –
NNc1ccccc1C(F)(F)F | active: 2.82 µM | –
COC(=O)/C(=N/Nc1ccccc1Cl)Sc1nnc(C(O)c2ccccc2)n1-c1ccccc1 (centres undefined) | active: 44.7 µM | –
Cc1ccc(NC(=O)CSc2nnc3[nH]c(=O)cc(-c4ccccc4)n23)cc1Cl | – | inactive: 0.438%
CN(C)S(=O)(=O)c1ccc(C(=O)Oc2coc(CSc3ncccn3)cc2=O)cc1 | inconclusive: 3.16 µM [inhibitor, partial curve, poor fit] | –
O=C1NCC(c2ccccc2)C1C(=O)N/N=C\c1ccc(-c2ccc(Cl)c(Cl)c2)o1 (centres undefined) | inconclusive: 25.1 µM [inhibitor, single point] | –
Cc1cccc(NC(=O)Cn2cc(C(=O)C3CC3)c3ccccc32)c1C | – | inactive: -5.97% [at 102 µM]
O=C(Nc1cccc(Cl)c1)c1cccnn1 | – | inactive: 19.2% [at 102 µM]

SMILES | Potency | activity, negative = inhibition
O=C(CSc1ncn[nH]1)c1cccc([N+](=O)[O-])c1 | active: 25.1 µM | –
O=C(N/N=C/c1cc([N+](=O)[O-])cc([N+](=O)[O-])c1O)C(O)(c1ccccc1)c1ccccc1 | inconclusive: 12.6 µM [inhibitor, single point] | –
COCC(C)n1c(C)cc(C(=O)CSc2nnnn2-c2ccc(O)cc2)c1C (centres undefined) | inconclusive: 50.1 µM [inhibitor, partial curve] | –
CC(C)(C)c1ccc(CNc2cc(N3CCOCC3)ccc2[N+](=O)[O-])cc1 | active: 25.1 µM | –
CC1Oc2ccccc2C=C1/C=N\NC(=O)c1cccnc1 (centres undefined) | – | inactive: 23.3% [at 102 µM]
COc1cc2cccc(OC)c(=O)c2c(OC)c1OC | active: 50.1 µM | –
O=C(O)CN1C(=O)/C(=C\c2cn(CC(=O)N3CCOCC3)c3ccccc23)SC1=S | inconclusive: 50.1 µM [inhibitor, partial curve, poor fit] | –
COc1ccccc1NS(=O)(=O)c1cccc(C(=O)N/N=C/c2ccc([N+](=O)[O-])o2)c1 | inconclusive: 50.1 µM [inhibitor, partial curve] | –
Cn1c(=O)n(CCc2ccccc2)c(=O)c2c1nc1n2CCN1Cc1ccco1 | inconclusive: 50.1 µM [inhibitor, partial curve, poor fit] | –
CSc1nccc(NC(=O)c2ccc(C(C)(C)C)cc2)n1 | – | inactive: 15.8% [at 0.501 µM]
CCOC(=O)c1c(-c2ccc(OC)cc2)csc1NC(=O)CCN1C(=O)c2ccccc2C1=O | inconclusive: 1.78 µM [inhibitor, partial curve, poor fit] | –
COc1cccc(N2CCN(C(=O)CN(C)S(=O)(=O)c3ccc4c(c3)CCC(=O)N4)CC2)c1 | inconclusive: 89.1 µM [inhibitor, single point] | –
CCOc1ccc(C2=NNC(c3cccs3)=Nc3ccc(OC)cc32)cc1 | active: 11.2 µM | –
O=C(OCc1nnc(-c2ccccc2)o1)c1cc(=O)[nH]c2ccccc12 | inconclusive: 89.1 µM [inhibitor, single point] | –
Cc1c(NC(=O)c2cc(-c3cccc(O)c3)on2)c(=O)n(-c2ccccc2)n1C | inconclusive: 31.6 µM [inhibitor, partial curve, poor fit] | –
COc1cccc(/C=N/N2CCN(c3ccccc3OC)CC2)c1 | inconclusive: 50.1 µM [inhibitor, partial curve, poor fit] | –
O=C(NCc1ccco1)C1CCCN(S(=O)(=O)c2ccc(-n3cnnn3)cc2)C1 (centres undefined) | active: 56.2 µM | –
CC1(C)CC(=O)C(N=Nc2cc(Cl)c(Cl)c(Cl)c2)=C(O)C1 | inconclusive: 79.4 µM [inhibitor, single point] | –
CCOC(=O)N1CCc2c(sc3c2c(=O)n(Cc2ccccc2)c(=O)n3Cc2ccccc2Cl)C1 | inconclusive: 17.8 µM [inhibitor, partial curve, poor fit] | –
COc1cc(/C=C/C2=NC(=O)C(C)(C)O2)ccc1O | inconclusive: 89.1 µM [inhibitor, partial curve, poor fit] | –
COc1ccc(CNC(=O)C2CCN(C(=O)[C@@H]3Cc4ccccc4CN3)CC2)cc1 | – | inactive: 9.53% [at 102 µM]
O=C(Nc1ncc2c(n1)-c1ccccc1CC2)c1ccc(Cl)cc1 | – | inactive: -5.45% [at 0.0925 µM]
CCCOc1ccc(-c2nn(-c3ccccc3)cc2/C=C2\SC(N)=NC2=O)cc1C | – | inactive: 24.2%
